In patent US20230340142A1 (SUZHOU NEOLOGICS BIOSCIENCE, published 2023):

How the values were obtained:
[1] = biological target: T1, human PD-L1 recombinant protein, PD-L1-his (human, UniProt Q9NZQ7 in part); test: Gator BLI; fusion protein on HFC sensor, antigen in solution; 1:1 fit
T1 construct: also called PD-L1 with a his-tag; not shown: his-tag

[2] = biological target: T2, TGF-beta 1 recombinant protein (Example 11) (UniProt P01137 in part, limits assumed); test: as above
T2 construct: also called TGF- 1; TGF-1

human PD-L1 = biological target: T3, human PD-L1 (human, UniProt Q9NZQ7 in part, limits assumed); test: sandwich ELISA: coated hPD-L1, titrated fusion protein, then rhTGF-β, biotinylated anti-TGF-β antibody and streptavidin-HRP, OD450
T3 construct: also called hPD-L1

T2 sequence (P01137 279-390 limits assumed): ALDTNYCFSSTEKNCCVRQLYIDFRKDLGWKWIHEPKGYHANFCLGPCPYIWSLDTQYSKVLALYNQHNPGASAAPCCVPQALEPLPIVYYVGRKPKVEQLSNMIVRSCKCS
human PD-L1, sequence (Q9NZQ7 19-238 limits assumed): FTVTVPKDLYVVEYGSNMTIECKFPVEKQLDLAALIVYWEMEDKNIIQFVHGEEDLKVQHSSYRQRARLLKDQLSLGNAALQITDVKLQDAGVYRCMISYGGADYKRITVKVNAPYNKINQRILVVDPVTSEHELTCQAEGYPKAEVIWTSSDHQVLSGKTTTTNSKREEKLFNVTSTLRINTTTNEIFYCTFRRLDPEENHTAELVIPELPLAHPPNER

Kd [1] [nM] | koff [1] [s⁻¹] | kon [1] [M⁻¹ s⁻¹] | Kd [2] [nM] | koff [2] [s⁻¹] | kon [2] [M⁻¹ s⁻¹] | EC50 (read off the curve) (human PD-L1) [ng/mL] | Binder
6.21 | 0.000848 | 137000 | 0.785 | 0.00179 | 2.28e+06 | ~3 | D fusion protein (SEQ ID NOs:159 and 163) (other, Anti-PD-L1 antibody (humanized Clone D) heavy chain linked to a TGFbRII ECD trap) heavy: QVQLVQSGAEVKKPGASVKVSCKASGYSFTGYTMNWVKQAHGQGLEWMGLIIPYNGGISYNQKFKDRVTMTVDTSISTAYMELSRLRSDDTAVYYCASLITTAPRDSMDYWGQGTLVTVSSASTKGPSVFPLAPSSKSTSGGTAALGCLVKDYFPEPVTVSWNSGALTSGVHTFPAVLQSSGLYSLSSVVTVPSSSLGTQTYICNVNHKPSNTKVDKRV[human IgG1 Fc omitted]PEAPTDPEAPTDPEAPTDIPPHVQKSVNNDMIVTDNNGAVKFPQLCKFCDVRFSTCDNQKSCMSNCSITSICEKPQEVCVAVWRKNDENITLETVCHDPKLPYHDFILEDAASPKCIMKEKKKPGETFFMCSCSSDECNDNIIFS light: DIQMTQSPSSLSASVGDRVTITCRASQDISNYLNWYQQKPGKAPKLLIYYTSKLHSGVPSRFSGSGSGTDFTLTISSLQPEDIATYYCQQGDALPWTFGGGTKVEIKRTVAAPSVFIFPPSDEQLKSGTASVVCLLNNFYPREAKVQWKVDNALQSGNSQESVTEQDSKDSTYSLSSTLTLSKADYEKHKVYACEVTHQGLSSPVTKSFNRGEC
5.03 | 0.000764 | 152000 | 0.75 | 0.00171 | 2.2e+06 | ~7 | C fusion protein (SEQ ID NOs:160 and 164) (other, Anti-PD-L1 antibody (humanized Clone C) heavy chain linked to a TGFbRII ECD trap) heavy: QVQLVQSGAEVKKPGASVKVSCKASGFNIKDTYMHWVRQAPGQGLEWIGRIDPANGNTKYDPKFQGRVTITTDTSASTAYLELSSLRSEDTAVYYCARGLGRWFAYWGQGTTVTVSSASTKGPSVFPLAPSSKSTSGGTAALGCLVKDYFPEPVTVSWNSGALTSGVHTFPAVLQSSGLYSLSSVVTVPSSSLGTQTYICNVNHKPSNTKVDKRV[human IgG1 Fc omitted]PEAPTDPEAPTDPEAPTDIPPHVQKSVNNDMIVTDNNGAVKFPQLCKFCDVRFSTCDNQKSCMSNCSITSICEKPQEVCVAVWRKNDENITLETVCHDPKLPYHDFILEDAASPKCIMKEKKKPGETFFMCSCSSDECNDNIIFS light: DIQMTQSPSSLSASVGDRVTITCQASQDVSNAVAWYQQKPGKAPKLLIYSASNLYTGVPSRFSGSGSGTDFTFTISSLQPEDIATYYCQQHDSTPLTFGQGTKLELKRTVAAPSVFIFPPSDEQLKSGTASVVCLLNNFYPREAKVQWKVDNALQSGNSQESVTEQDSKDSTYSLSSTLTLSKADYEKHKVYACEVTHQGLSSPVTKSFNRGEC
